Reference: PubChem BioAssay AID1745853 (National Center for Advancing Translational Sciences (NCATS), 2022)
Values joined by “and” are separate entries in the source; they are usually repeats but may differ in a detail not shown here. Equal entries are not always repeated. Some of the results follow. Further columns of the screen follow, without active or inactive calls.

How the values were obtained:
Test in all cases: Primary Screen for Target Class Profiling of Small Molecule Inhibitors of Methyltransferases
[1] = biological target: Glycine N-methyltransferase (Homo sapiens) (UniProt Q14749); conditions: purified enzyme, MTase-Glo SAH luminescence; measured here: GNMT inhibition; at 40 µM; stronger effect = lower value
How it was run: (§1)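 Each enzyme was reacted with SAM and its substrate, with compounds tested once at 40 uM; SAH formed was read by MTase-Glo luminescence.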

[2] = biological target: Guanidinoacetate N-methyltransferase (Homo sapiens) (UniProt Q14353); conditions: purified enzyme, MTase-Glo SAH luminescence; measured here: GAMT inhibition; at 40 µM; stronger effect = lower value
How it was run: as §1

[3] = biological target: Histamine N-methyltransferase (Homo sapiens) (UniProt P50135); conditions: purified enzyme, MTase-Glo SAH luminescence; measured here: HNMT inhibition; at 40 µM; stronger effect = lower value
How it was run: as §1

[4] = biological target: Nicotinamide N-methyltransferase (Homo sapiens) (UniProt P40261); conditions: purified enzyme, MTase-Glo SAH luminescence; measured here: NNMT inhibition; at 40 µM; stronger effect = lower value
How it was run: as §1

[5] = biological target: Phenylethanolamine N-methyltransferase (Homo sapiens) (UniProt P11086); conditions: purified enzyme, MTase-Glo SAH luminescence; measured here: PNMT inhibition; at 40 µM; stronger effect = lower value
How it was run: as §1
% is set by controls: 0 for no effect and ±100 for the full control effect.

Structure (SMILES) | activity change, negative = inhibition [1] | activity change, negative = inhibition [2] | activity change, negative = inhibition [3] | activity change, negative = inhibition [4] | activity change, negative = inhibition [5]
CC(O)(CC(=O)O)CC(=O)O[C@@H]1[C@@H](O)[C@H](OCCc2ccccc2)O[C@H](CO)[C@H]1O (some centres not stated) | 4.6% | 4.77% | 4.88% | -8.35% | -1.13%
O=C(CCC1CCCN(Cc2ccc(-c3ccccc3)cc2)C1)N1CCOCC1 (configuration not stated) | -5.06% | -7.65% | -4.54% | -8.2% | -5.29%
CC(C)CCn1c(=O)c2ccc(C(=O)NC3CCCC3)cc2n2c(=O)n(CC(=O)NC(C)C)nc12 | 3.9% | 0% | 8.28% | 4.25% | 0.665%
Cc1ccc(NC(=O)Cn2c(=O)oc3cc(S(=O)(=O)N4CCCC4)ccc32)c(C)c1 | -1.73% | 6.87% | 7.24% | 5.09% | -0.787%
COc1ccc(-c2cc3n(n2)CC(C)(C(=O)NC2CCCCC2)N(C2CCCC2)C3=O)cc1 (configuration not stated) | -7.94% | -2.72% | -11.6% | -13% | -3.67%
Cc1ccccc1CCNC(=O)Cn1ccc2cc(S(=O)(=O)N3CCCC3)ccc21 | 3.4% | 0.605% | 0.165% | 4.61% | -15.3%
O=S(=O)(c1ccccc1)c1nnn2c1nc(N1CCN(c3ccccn3)CC1)c1cc(Cl)ccc12 | 2.5% | -0.923% | -5.28% | 1.33% | -3.75%
COCC(=O)N[C@H]1C[C@@H](CO)N(Cc2ccc(Br)o2)C1 | -4.77% | -4.51% | -1.88% | -6.87% | -7.07%
CC(C)C[C@@H](C(=O)N[C@@H](Cc1ccc(OCc2ccccc2)cc1)C(=O)NC(C)(C)C)N(C)Cc1ccc(C(C)(C)C)cc1 | 4.49% | -22.4% | -3.17% | -35.5% | -19.8%
COCCN1CC2CN(C(=O)c3ccc(Cc4c(C)noc4C)o3)CC(C1)O2 | -3.61% | -1.03% | -2.81% | -2.9% | 4.22%
CC1(C(=O)NC2CCCCCCC2)Cn2c(ccc2-c2ccccc2)C(=O)N1Cc1ccccc1 (configuration not stated) | -0.493% | 2.16% | -5.34% | -7.7% | -5.79%
CCCn1c(=O)c2ccccc2n2c(SCC(=O)NCc3ccc(C)cc3)nnc12 | 3.48% | 0% | 0.733% | 1.73% | 0.931%
CC(=O)O[C@@H]1CC2C(C)(C)C(=O)C=C[C@]2(C)C2CC[C@@]3(C)[C@H](c4ccoc4)OC(=O)[C@H]4O[C@]43[C@@]21C (some centres not stated) | -2.1% | 4.26% | 7.9% | -10.7% | 6.56%
CC(=O)Nc1c2n(c3ccccc13)CC(C)(C(=O)NC1CCCCCC1)N(Cc1ccccc1)C2=O (configuration not stated) | 1.41% | 0% | 3.23% | 2.29% | 3.03%
CCCn1c(=O)c2ccc(Cl)cc2n2c(=O)n(CC(=O)Nc3ccccc3F)nc12 | -1.35% | 2.38% | 4.07% | -4.42% | 1.31%
Cc1nnc(-c2cc(-c3ccsc3)ccn2)n1-c1ccccc1 | -15.6% | -0.292% | -19.1% | -23.9% | -13.6%
O=C(NCc1nnc2c(-c3nc(C4CC4)no3)cccn12)C1CC1 | -1.68% | -3.14% | -0.72% | -2.87% | -4.49%
COc1cccc(C(C)N(C)Cc2nc(-c3cccs3)no2)c1 (configuration not stated) | -1.63% | -0.734% | 0.945% | -5.03% | 10.4%
COC(=O)[C@@H]1C2CC3c4[nH]c5ccccc5c4CCN3CC2CC[C@@H]1O (some centres not stated) | -0.575% | – | 7.56% | – | –
CCNC(=O)N1CC(C(=O)NCc2ccco2)CC(c2ccc(OC)c(OC)c2)C1 (configuration not stated) | -8.09% | -1.69% | -1.75% | -3.52% | -2.97%

Structure (SMILES) | activity change, negative = inhibition [1] | activity change, negative = inhibition [2] | activity change, negative = inhibition [3] | activity change, negative = inhibition [4] | activity change, negative = inhibition [5]
COc1ccc(OC)c(CCNC(=O)CCc2nnc3n(CCc4ccccc4)c(=O)c4ccccc4n23)c1 | -6.67% | 2.32% | -1.09% | -6.7% | -8.43%
CC(CNS(=O)(=O)C(C)C)c1ccc(-c2ccc(C#N)cc2)cc1 (configuration not stated) | -6.08% | 1.32% | 11.4% | -10.2% | 0.729%
c1cncc(CN2CC(N3CCc4ccccc43)C2)c1 | -3.58% | -3.67% | -6.2% | 0.57% | -5.99%
Cc1cccc(OC2(C(=O)O)CCN(c3cncc(C(N)=O)n3)CC2)c1 | -3.06% | 0.088% | 0.625% | -2.15% | -0.042%
COCCCn1c(C)cc(C(=O)N[C@@H]2CN(C)C[C@H]2CN(C)C)c1C | -2.6% | -1.21% | 1.25% | 1.83% | 1.87%
CCCn1c(=O)c2ccc(C(=O)NC(C)CC)cc2n2c(=O)n(CC(=O)c3ccc(OC)cc3)nc12 (configuration not stated) | -0.42% | 0% | 1.22% | -3.96% | 1.91%
COc1ccc(-c2ccc3nc(-c4cccc(F)c4)oc3c2)c(OC)c1OC | -11.9% | -2.37% | -5.47% | -3.46% | -11.2%
CNc1nc(C(=O)N2CCc3nc(-c4ccccc4)[nH]c3C2)cs1 | -5.72% | -4.04% | -5.59% | -4.07% | -4.65%
CC(C)CCN(C1CCOCC1)C1CCN(Cc2cccnc2)CC1 | -8.31% | -6.04% | -5.26% | -2.98% | -9.55%
CC(C)(C)c1ccc(-c2nc3c(N4CCN(Cc5ccc6nccnc6c5)CC4)cccc3[nH]2)cc1 | -1.88% | -18.1% | -0.298% | -45.7% | -15.4%
Cc1ccc(CNC(=O)CSc2nnc3n(C)c(=O)c4ccc(C(=O)NC5CCCC5)cc4n23)cc1 | -5.16% | -3.62% | 1.4% | 2.93% | -0.016%
CCCn1c(=O)c2ccc(Cl)cc2n2c(SCC(=O)Nc3ccc(F)cc3)nnc12 | -0.622% | 1.32% | 4.27% | -2.54% | -2.32%
CNC(=O)[C@@H]1CCCC[C@@H]1C(=O)N1CCn2nc(Cc3ccccc3)cc2C1 | -6.11% | -6.38% | -6.74% | -10.6% | 1.55%
Cc1noc(C)c1C(=O)N(C)C1CCc2nnc(C)n2CC1 (configuration not stated) | 1.59% | -2.63% | -0.809% | 4.13% | 2.15%
CN1C(=O)c2cc(C(=O)NCc3ccccc3)nn2CC1(C)C(=O)NCc1ccc(F)cc1 (configuration not stated) | 9.43% | 0% | 9.29% | 11.4% | 3.72%
CN1CCN(C(=O)c2cc3n(n2)CC(C)(C(=O)NCc2ccc(F)cc2)N(C)C3=O)CC1 (configuration not stated) | 4.58% | 0% | -4.45% | 10.5% | 5.82%
CC1(C)CC[C@]2(C(=O)O[C@@H]3O[C@H](CO[C@@H]4O[C@H](CO)[C@@H](O)[C@H](O)[C@H]4O[C@@H]4O[C@H](CO)[C@H](O)[C@H](O)[C@H]4O)[C@@H](O)[C@H](O[C@@H]4O[C@H](CO)[C@@H](O)[C@H](O)[C@H]4O)[C@H]3O)CC[C@]3(C)C(=CCC4[C@@]5(C)CC[C@H](O[C@@H]6OC[C@@H](O)[C@H](O)[C@H]6O)[C@@](C)(C(=O)O)C5CC[C@]43C)[C@@H]2C1 (some centres not stated) | 2.51% | -1.23% | 2.8% | -15.4% | 4.25%
CC1(C(=O)NC2CCCCCC2)Cn2c(ccc2-c2ccccc2)C(=O)N1CCN1CCOCC1 (configuration not stated) | 2.67% | 0% | -1.6% | 0.882% | -0.88%
COc1ccc2cc3n(c2c1)CC(C)(C(=O)NC1CCCC1)N(Cc1ccc2c(c1)OCO2)C3=O (configuration not stated) | -6.32% | -2.67% | -1.44% | -9.02% | -3.65%
Cc1nnc2ccc(N3CCC(NC(=O)C(C)C)CC3)nn12 | 0.125% | 2.98% | 1.36% | -6.02% | 0.666%

Structure (SMILES) | activity change, negative = inhibition [1] | activity change, negative = inhibition [2] | activity change, negative = inhibition [3] | activity change, negative = inhibition [4] | activity change, negative = inhibition [5]
Cc1ccc(S(=O)(=O)NCCc2nc(-c3ccc4c(c3)ncn4C)no2)cc1 | 5.54% | 0% | 11.2% | 1.18% | 7.35%
C=CCn1c(=O)c2ccc(C(=O)NC(C)C)cc2n2c(=O)n(CC(=O)Nc3cccc(CC)c3)nc12 | 6.16% | 1.33% | 9.86% | 2.49% | 9.61%
O=C(COc1ccc(-c2nnc3n2CCCC3)cc1)NCc1ccccc1Br | -6.35% | -4.53% | -8.14% | -14% | -9.32%
O=C(CCc1nnc2n(Cc3ccc(Cl)cc3)c(=O)c3ccccc3n12)NCCC1=CCCCC1 | -15% and -5.05% | -19.8% and 1.24% | -16.4% and 6.63% | -18.7% and -8.38% | -13.1% and 1.92%
CCCC(C(=O)O)c1c(C)nc2ccc(Cl)cc2c1-c1ccccc1 (configuration not stated) | -8.43% | -0.373% | 5.78% | -37.2% | -1.84%
CC(O)C1CCC2C3CCC4CC(OC5OC(C(=O)O)C(O)C(O)C5O)CCC4(C)C3CCC12C (configuration not stated) | -29.2% | 2.67% | -5.38% | -38.9% | -13.1%
O=C(CCn1cncn1)N1CCc2ncnc(N3CC=CC3)c2CC1 | -3.38% | -0.305% | 1.32% | -1.52% | -11.1%
COc1ccc(-c2cc3n(n2)CC(C)(C(=O)NCc2ccccc2)N(CCc2ccccc2)C3=O)cc1 (configuration not stated) | -0.811% | 3.13% | 2.43% | 4.09% | -0.259%
Cc1ccc(C)c(N2C(=O)CSc3c(c4ccccc4n3C)C2C(=O)NCc2ccccc2)c1 (configuration not stated) | 9.8% | 0% | 3.83% | -0.556% | 5.37%
C=C1CCC2C(C)(C)C(O)CCC2(C)C1CCC(C)CCOC(C)=O (configuration not stated) | -2.24% | 0.107% | 6.54% | -17.1% | -8.52%
COc1ccc(CN2CC3(CCN(S(=O)(=O)c4c(C)nn(C)c4C)CC3)C2=O)cc1 | -3.02% | -12.2% | -2.53% | -13.8% | -1%
CCOc1ccccc1CN1C(=O)c2ccc(-c3ccco3)n2CC1(C)C(=O)NC1CCCC1 (configuration not stated) | -4.81% | 0.749% | 8.43% | 5.43% | 1.54%
Cc1cccc(CC(=O)N2CC(Oc3ccccc3-c3noc(C)n3)C2)c1 | -8.84% | -2.23% | -0.368% | -12.9% | -2.21%
CCN1C(=O)CN(C(=O)CC(C)C)CC12CCOCC2 | -1.83% | -0.469% | -1.52% | 3.31% | 4.73%
COC(=O)c1c(C)[nH]c(C)c1C(=O)c1ccccc1Cc1ccccc1 | -5% | 8.77% | -0.462% | -8.84% | 10.3%
Cc1cc(C)c(NS(=O)(=O)c2cc3c(cc2Cl)n(C)c(=O)n3C)c(C)c1 | 13.2% | 0.128% | -29.2% | 3.52% | 7.72%
O=C1c2ccccc2C(=O)c2cc(S(=O)(=O)N(CCO)CCO)ccc21 | -27.7% | -1.77% | -1.92% | -2.42% | -68.4%
CC(=O)N1CC[C@H](c2nc3ccc(C#N)cc3[nH]2)C1 | -7.44% | -5.22% | -26.1% | -8.26% | -5.64%
